{"source": "the supplement of paper PMC7826260", "note": "The list shows a part of the results. The data describe in vitro nicking of single-stranded DNA by Rep domains for 1 h at 37 °C with 3 µM enzyme; only the middle of the 90-letter strands is printed. Values are log2 of uncut reads against the no-enzyme pool; uncut sequences lie near 0, cut ones below; no hit call is given. Reads are scaled to the total, so uncut sequences can rise above 0 when many others are cut.", "data": [{"test_system": "T1, Rep nickase domain of tomato golden mosaic virus", "T1 sequence (residues 1-124 of Rep, tag left off)": "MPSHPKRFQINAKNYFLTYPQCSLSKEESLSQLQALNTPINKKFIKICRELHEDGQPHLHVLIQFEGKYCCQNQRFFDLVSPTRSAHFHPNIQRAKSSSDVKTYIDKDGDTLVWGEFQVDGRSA", "experiment": "uncleaved DNA left, log2 of reads against the no-enzyme library (log2 ratio); higher = less cleavage (more negative = more Rep cleavage of the k-mer); sequences stand for … in CTCGTCCG…ACCGGAGA", "protocol": "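A pool of 90-nt single-stranded DNAs with seven random bases just before the constant AC of the nick site (name = the seven bases) was cut by 3 µM recombinant His6-SUMO-tagged Rep nickase domain (300 nM DNA, 50 mM HEPES pH 8.0, 50 mM NaCl, 1 mM MnCl2, 1 h, 37 °C, three replicates). Uncut DNA was amplified and sequenced.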", "values": [{"sequence": "GCCTATT", "uncleaved DNA left (log2)": -0.225}, {"sequence": "TAGGTAC", "uncleaved DNA left (log2)": -0.0177}, {"sequence": "TACATAG", "uncleaved DNA left (log2)": -0.0873}, {"sequence": "ATGGACA", "uncleaved DNA left (log2)": -0.0386}, {"sequence": "TAATTTA", "uncleaved DNA left (log2)": -2.77}, {"sequence": "CTAGAAT", "uncleaved DNA left (log2)": 0.0179}, {"sequence": "ATGTATC", "uncleaved DNA left (log2)": -0.073}, {"sequence": "GGTAAAT", "uncleaved DNA left (log2)": 0.00728}, {"sequence": "AGACGCC", "uncleaved DNA left (log2)": -0.0158}, {"sequence": "GCCATAT", "uncleaved DNA left (log2)": -0.0693}, {"sequence": "TGTCACC", "uncleaved DNA left (log2)": 0.139}, {"sequence": "AACCTTT", "uncleaved DNA left (log2)": -0.141}, {"sequence": "TATAGGC", "uncleaved DNA left (log2)": -0.00235}, {"sequence": "AGTGTGT", "uncleaved DNA left (log2)": -0.0161}, {"sequence": "ATGATTG", "uncleaved DNA left (log2)": 0.0172}, {"sequence": "CGTTTAT", "uncleaved DNA left (log2)": 0.0916}, {"sequence": "CAAAACA", "uncleaved DNA left (log2)": 0.00873}, {"sequence": "ACGTGAC", "uncleaved DNA left (log2)": 0.00833}, {"sequence": "GTTTGAT", "uncleaved DNA left (log2)": 0.186}, {"sequence": "ATTTAAG", "uncleaved DNA left (log2)": 0.0543}, {"sequence": "TCCCACT", "uncleaved DNA left (log2)": -0.287}, {"sequence": "AAGTTCG", "uncleaved DNA left (log2)": 0.0746}, {"sequence": "TAAATTC", "uncleaved DNA left (log2)": -0.76}, {"sequence": "TTAGCTA", "uncleaved DNA left (log2)": 0.161}, {"sequence": "TCAATCG", "uncleaved DNA left (log2)": 0.117}, {"sequence": "CGTTGTG", "uncleaved DNA left (log2)": -0.217}, {"sequence": "TGGGAGC", "uncleaved DNA left (log2)": 0.0918}, {"sequence": "CCTATGT", "uncleaved DNA left (log2)": -0.0563}, {"sequence": "ATCGCGC", "uncleaved DNA left (log2)": -0.058}, {"sequence": "GACCAGT", "uncleaved DNA left (log2)": -0.0578}, {"sequence": "CTTCCGC", "uncleaved DNA left (log2)": -0.178}, {"sequence": "TGTCTAC", "uncleaved DNA left (log2)": 0.148}, {"sequence": "TAACCTC", "uncleaved DNA left (log2)": -0.0893}, {"sequence": "TGACGGT", "uncleaved DNA left (log2)": 0.0803}, {"sequence": "GTTGCAC", "uncleaved DNA left (log2)": -0.0672}, {"sequence": "CTCGGCA", "uncleaved DNA left (log2)": 0.0577}, {"sequence": "GCGCTGT", "uncleaved DNA left (log2)": -0.0855}, {"sequence": "GCGCTAA", "uncleaved DNA left (log2)": 0.0393}, {"sequence": "TGGGGTA", "uncleaved DNA left (log2)": 0.147}, {"sequence": "TCATAGT", "uncleaved DNA left (log2)": -0.0793}]}]}
